Test results taken from paper PMC4336329 (PLoS ONE, 2015).
Screen size: about 310,000 compounds; about 14,000 (4.5%) showed an effect of 50% or more. Effects have a minus sign here. The list shows a part of the results.

target: human ether-à-go-go-related gene (hERG) potassium channel (human, UniProt Q12809); assay: primary screen, population patch clamp on CHO cells stably expressing hERG
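Further: peak tail current of the secondary pulse compared with the same well before compound.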

human ether-à-go-go-related gene (hERG) potassium channel, sequence (Q12809 whole entry, looked up): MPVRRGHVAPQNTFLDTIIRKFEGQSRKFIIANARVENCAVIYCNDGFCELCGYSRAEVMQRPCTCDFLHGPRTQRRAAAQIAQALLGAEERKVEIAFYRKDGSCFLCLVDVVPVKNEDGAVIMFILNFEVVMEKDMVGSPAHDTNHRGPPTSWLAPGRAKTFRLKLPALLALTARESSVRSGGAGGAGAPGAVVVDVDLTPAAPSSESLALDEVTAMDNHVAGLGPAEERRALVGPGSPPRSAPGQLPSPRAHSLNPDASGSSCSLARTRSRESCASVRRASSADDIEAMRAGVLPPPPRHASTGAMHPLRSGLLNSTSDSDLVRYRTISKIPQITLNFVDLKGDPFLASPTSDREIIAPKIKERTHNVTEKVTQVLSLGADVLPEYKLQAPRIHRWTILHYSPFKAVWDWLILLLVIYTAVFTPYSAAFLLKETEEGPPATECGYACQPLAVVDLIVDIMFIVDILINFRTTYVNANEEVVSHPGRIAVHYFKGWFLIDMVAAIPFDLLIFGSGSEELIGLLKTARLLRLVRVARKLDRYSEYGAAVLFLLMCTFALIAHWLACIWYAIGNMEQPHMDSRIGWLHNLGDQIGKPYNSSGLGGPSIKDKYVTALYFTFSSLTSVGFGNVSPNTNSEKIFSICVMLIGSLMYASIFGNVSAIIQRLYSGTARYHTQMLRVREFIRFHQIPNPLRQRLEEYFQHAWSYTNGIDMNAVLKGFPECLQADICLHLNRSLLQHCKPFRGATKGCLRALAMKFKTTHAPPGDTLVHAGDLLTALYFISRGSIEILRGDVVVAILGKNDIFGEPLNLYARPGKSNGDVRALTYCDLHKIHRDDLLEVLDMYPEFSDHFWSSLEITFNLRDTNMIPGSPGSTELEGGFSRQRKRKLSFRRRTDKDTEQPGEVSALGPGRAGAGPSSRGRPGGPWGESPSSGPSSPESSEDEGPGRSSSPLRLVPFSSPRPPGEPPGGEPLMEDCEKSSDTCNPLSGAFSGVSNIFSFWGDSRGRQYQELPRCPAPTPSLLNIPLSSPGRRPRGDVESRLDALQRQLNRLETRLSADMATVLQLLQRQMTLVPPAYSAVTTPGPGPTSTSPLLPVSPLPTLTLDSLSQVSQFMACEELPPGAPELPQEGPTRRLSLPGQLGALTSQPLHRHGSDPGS

Structure (SMILES)	hERG current change (%, negative = inhibition) at 10uM [%]
Cc1ccc(S(=O)(=O)N2CCOCC2)cc1NC(=O)COC(=O)C1=COCCO1	19.9
CCc1csc(CCNC(=O)C2CCC(=O)N(CCc3cccc(F)c3)C2)n1 (centres unmarked)	-13.4
Cc1ccc(NC2=CC(=O)CC(c3ccc(Cl)cc3)C2)cc1 (centres unmarked)	13.2
COc1cccc(CNC(=O)Cn2c(=O)c3cccn3c3ccccc32)c1	19
COc1ccc(/C=N/N2CCN(c3ccncc3S(=O)(=O)N3CCCCC3)CC2)cc1	10.3
Cn1cc(SCC(=O)O)c2ccccc21	11.2
CCCCN(CC)CCCNC(=O)c1ccc(CSc2nc3ccncc3[nH]2)cc1	2.92
COCCNc1ncnc2c1nc1n2CCCC1	12.4
CN(Cc1ccco1)C(=O)Cn1cc(S(=O)(=O)N2CCCC2)c(S(=O)(=O)N2CCCC2)c1	5.78
O=c1c2c(nc3cc(-c4ccc(Cl)cc4)[nH]n13)CCS2	-13.9
Cc1ccc(C)c(S(=O)(=O)NC(Cc2c[nH]c3ccccc23)C(=O)O)c1 (centres unmarked)	16.4
COc1ccc(NC(=O)COc2ccc(/C=N/O)cc2OC)cc1	1.42
CC(=O)NC(CC(=O)Nc1ccc(S(=O)(=O)NC2=NCCCCC2)cc1)c1ccccc1 (centres unmarked)	-5.71
COc1ccc(NC(=O)CSc2nc3sc(C)c(C)c3c(=O)n2Cc2ccco2)cc1	-6.52
CCCCN(CC)C(=O)/C=C/c1cccc([N+](=O)[O-])c1	-63.5
CCOC(=O)c1ccccc1NC(=O)Cn1cnc2c(oc3ccccc32)c1=O	18.3
O=C(NC(=S)Nc1ccccc1Cl)c1cncc(Br)c1	18.7
Cc1nc(C(=O)NCCCO)cc2c1[nH]c1ccccc12	14.5
CC(C)Cn1c(=O)c2c(nc3n2CCS3)n(C)c1=O	0.226
O=c1cnnc(Nc2ccc(Nc3ccccc3)cc2)[nH]1	21.2
O=C1COc2ccc(C(=O)COC(=O)Cc3ccc(Cl)cc3)cc2N1	-9.51
O=C(NCc1ccccc1Cl)C1CCC(=O)N(C2CCCC2)C1 (centres unmarked)	6.64

Structure (SMILES)	hERG current change (%, negative = inhibition) at 10uM [%]
CC(C(=O)N1c2ccccc2CC1C)N1CCN(S(=O)(=O)c2ccccc2F)CC1 (centres unmarked)	-29.1
CCOC(=O)c1ccc(N(CC(=O)NC2CCCC2)C(=O)CNC(=O)c2ccco2)cc1	-18.5
COCCCNC(=O)CN1CCN(Cc2ccc(Cl)cc2)C1=O	1.74
CCNC(=O)CP(=O)(c1ccccc1)c1ccccc1	15.1
O=C(CCn1c(=O)c2ccccc2n(Cc2cccnc2)c1=O)NCc1ccc2c(c1)OCO2	-5.1
COc1cc(NS(=O)(=O)c2ccc(Br)s2)cc(OC)c1	-6.99
O=C(CCNC(=O)c1ccc([N+](=O)[O-])cc1)Nc1ccccc1N1CCOCC1	-64.3
Cc1oc(-c2cccc(C(F)(F)F)c2)nc1CN1CCOCC1	-3.32
COc1ccc(NC2=Nc3cccc4cccc2c34)cc1	-3.18
ON1C2CCCCC2N(O)C1c1c(F)c(F)c(F)c(F)c1F (centres unmarked)	19.3
CCn1c(Cc2ccccc2)nnc1SCC(=O)Nc1cc(C)on1	6.46
O=C(CSc1nnc(NC(=O)C2CCCCC2)s1)NCc1ccco1	12.9
Cc1ccccc1NC(=O)C1CCCN(C(=O)Nc2ccc(F)cc2)C1 (centres unmarked)	-9.04
Cc1nn(C)cc1S(=O)(=O)N1CCN(c2ccccc2)CC1	-0.755
O=C(Nn1c(-c2ccncc2)nc2ccccc2c1=O)c1ccc([N+](=O)[O-])cc1Cl	6.33
CC1=C(C(=O)OCc2ccccc2)C(c2ccc(N3CCOCC3)cc2)NC(=O)N1 (centres unmarked)	-2.02
Cc1cc(NC(=O)CCCSc2nc(-c3ccco3)cc(C(F)(F)F)n2)no1	16.7
CN(C)C(=O)c1nnsc1Sc1ccc(Cl)cc1	-24
Cc1ccc(C)c(OC(C)C(=O)Nc2nccs2)c1 (centres unmarked)	3.8
O=C(Nn1c(COc2ccccc2)nc2ccccc2c1=O)C(Cl)(Cl)Cl	9.26
N#CCSc1ccccc1NC(=O)COc1ccc(-c2nnco2)cc1	-66.3
Cc1ccc(S(=O)(=O)NNc2nc3ccccc3nc2C(F)(F)F)cc1	3.38
